In a collection of fitness landscapes (doi:10.1016/j.celrep.2020.107928):
The full ranking holds about 81,000 sequences; the median of “one-hybrid fitness for binding NBS DNA” is about -0.1, and the highest 2% start at about 0.36. This is one part of the list.

B1: Caulobacter ParB omega fusion; a variant is named by its letters at X, in order, B8GW30 (parent)
chain: MESVVVGEPGMSEGRRGLGRGLSALLGEVDAAPAQAPGEQLGGSREAPIEILQRNPDQPRRTFREEDLEDLSNSIREKGVLQPILVRPSPDTAGEYQIVAGERAWRAAQRAGLKTVPIMVRELDDLAVLEIGIIENVQRADLNVLEEALSYKVLMEKFERTQENIAQTIGKSXSHVANXMRLLXLPDEVQSYLVSGELTAXHARAIAAAADPVALAKQIIEGGLSVRETEALARKAPNLSAGKSKGGRPPRVKDTDTQALESDLSSVLGLDVSIDHRGSTGTLTITYATLEQLDDLCNRLTRGI

Variants of: B1
Assay: one-hybrid fitness for binding NBS DNA (the Noc-binding site; scaled: cognate 1, non-cognate 0); higher = stronger binding
Details: with NBS DNA site
How it was run: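 In E. coli USO, a HIS3 reporter with its site placed 19 bp from the promoter was used to select Caulobacter ParB variants randomised at four specificity codons. Growth lasted 48 hours at 37°C on histidine-free M9 containing 0.1 mM IPTG and 5 mM 3-AT. Fitness was taken as the log change in variant-to-wild-type read ratio from Illumina sequencing of pre- and post-selection plasmids, rescaled between the non-cognate and cognate sites.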

one-hybrid fitness for binding NBS DNA, ≤ 0.2:
KFRS
FKPA
YAYV
TCCT
LNCV
DRAV
ITCS
RRQD
RCTP
VCVF
TKPM
FQPR
PSNK
STHE
VKGF
DHAI
SKWR
QPTF
PVDL
VMPR
ATIG
NMYG
ADKA
VQKH
ARFY
EINP
RGKQ
IELS
RTSM
SLNL
GNKT
KHSC
WSPT
NKNS
KVWS
VMIS
APGW
LDSK
YCIC
DDPE
EWPD
TPAE
HRFS
GIPD
SQEI
KPQS
TACS
LCPE
QLAV
NGRG
SFLF
WNIS
SQHY
TWVS
GEVF
TQFS
PACN
PIEA
IPWR
FKKT
HFAM
NASS
DESS
MYGC
MNAW
HMHM
LIWY
TRWV
ILGS
DVWT
CTFC

one-hybrid fitness for binding NBS DNA, 0.23:
RFGR

one-hybrid fitness for binding NBS DNA, 0.448:
RMHT

one-hybrid fitness for binding NBS DNA, 0.439:
QTET

one-hybrid fitness for binding NBS DNA, 0.551:
QLNR

one-hybrid fitness for binding NBS DNA, 0.34:
QLVR
